Test results taken from patent US11944613B2, “CYP2J2 antagonists in the treatment of pain” (FRAUNHOFER-GESELLSCHAFT ZUR FÖRDERUNG DER ANGEWANDTEN …, priority 2014, dated 2024).

Key:
[1] = system: G-protein coupled receptor in DRGs; assay: [35S] GTPγS binding assay in membrane fractions of rat DRGs; format: biochemical; conditions: 1 μM 9,10-EpOME, 30 minutes, 30 μM GDP
[2] = system: neuron enriched DRG cultures; assay: cAMP in neuron-enriched DRG cultures; format: cell-based, mouse; conditions: 1 μM for 15 minutes
TRPV1 = TRPV1 (Mus musculus, UniProt Q704Y3); assay: Calcium imaging: TRPV1 sensitization, double capsaicin stimulation of DRG neurons; conditions: 9,10-EpOME 250 nM to 2 μM
TRPV1, sequence (Q704Y3 whole entry): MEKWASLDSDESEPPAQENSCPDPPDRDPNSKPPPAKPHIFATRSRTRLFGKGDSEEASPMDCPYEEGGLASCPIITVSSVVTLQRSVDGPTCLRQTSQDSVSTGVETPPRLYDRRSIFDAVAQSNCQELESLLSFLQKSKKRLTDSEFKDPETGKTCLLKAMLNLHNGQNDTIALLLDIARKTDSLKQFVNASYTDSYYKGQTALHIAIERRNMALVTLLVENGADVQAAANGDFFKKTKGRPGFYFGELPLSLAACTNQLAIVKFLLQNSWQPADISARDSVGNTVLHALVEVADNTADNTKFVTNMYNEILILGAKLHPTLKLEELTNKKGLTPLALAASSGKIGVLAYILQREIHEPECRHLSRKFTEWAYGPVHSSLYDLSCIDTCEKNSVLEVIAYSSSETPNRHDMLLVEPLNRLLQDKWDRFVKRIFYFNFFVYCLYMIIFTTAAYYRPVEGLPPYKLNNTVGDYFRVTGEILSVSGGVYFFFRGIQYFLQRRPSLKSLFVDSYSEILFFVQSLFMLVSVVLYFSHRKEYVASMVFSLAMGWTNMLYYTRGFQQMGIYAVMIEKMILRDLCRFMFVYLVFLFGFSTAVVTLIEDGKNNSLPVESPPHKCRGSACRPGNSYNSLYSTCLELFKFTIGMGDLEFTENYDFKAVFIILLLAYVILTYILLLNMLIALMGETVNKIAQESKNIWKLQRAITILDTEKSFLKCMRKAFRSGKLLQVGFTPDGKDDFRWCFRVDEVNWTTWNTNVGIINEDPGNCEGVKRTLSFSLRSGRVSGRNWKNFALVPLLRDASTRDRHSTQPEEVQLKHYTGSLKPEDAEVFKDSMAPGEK

## CCCCC/C=C\CC1OC1CCCCCCCC(=O)O (stereo not drawn) [9,10-EpOME, 9,10-epoxy-12Z-octadecenoic acid]
[1]
  GTPγS signal: significantly increased signal
[2]
  cAMP concentrations compared to vehicle: significant increase
TRPV1
  amplitudes of the second capsaicin responses compared to vehicle, dose response: dose dependent increase
